These results are taken from PubChem BioAssay (NCATS).

This is one part of the list. Shown are side measurements of this screen, not its main read-out; they come without a call. Compounds called inactive in the main read-out are mostly missing here. The note in brackets gives the kind of curve behind each potency; many fits are weak.
Tags describe the fitted curve by direction and shape.

A short description of one assay: qHTS Assay for Lipid Storage Modulators (AID 1519). Conditions: Drosophila S3 cells, BODIPY lipid droplet/cell ratio, laser cytometry; measured here: lipid (BODIPY) channel AC50; cells loaded with oleic acid. Summed up: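 Cells seeded at 5,000 per well were treated with compounds over a concentration series and loaded with oleic acid (400 uM, as added). Lipid droplet fluorescence (488 nm excitation, 500-530 nm channel) was read by laser-scanning cytometry and normalized to 20 uM Triacsin C.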
As usually defined, the AC50 is the concentration at which the activity in the assay is half-maximal. Turning to `CC(=O)NCCc1ccc(O)c(O)c1`, the AC50 is 14.1 nM [falling, full curve, poor fit].

`CN(C)c1ccc(-c2nc(-n3ccnc3)c3ccccc3n2)cc1`: the AC50 is 25.1 nM [rising, full curve].

For the molecule `O=C(c1ccc2c(c1)OCO2)N1CCCCC1`, the AC50 is 15800 nM [rising, partial curve, poor fit].

On to `COc1cccc(-c2nc(NCCN3CCOCC3)c3ccccc3n2)c1`, for which the AC50 is 3980 nM [rising, full curve, poor fit].

`Clc1cccc(Nc2nnc(-c3ccccc3)c3ccccc23)c1`: the AC50 was 708 nM [rising, full curve].

In the case of `O=C(c1csnn1)N1CCC2(CCCN(c3ccccn3)C2)CC1`, the AC50 is 355 nM [rising, full curve, poor fit].

As to `CN(C)c1ccc(-c2cncnc2N(C)Cc2ccco2)cc1`, the AC50 is 794 nM [rising, partial curve].

Consider `Cc1onc(-c2c(Cl)cccc2Cl)c1C(=O)NC1C(=O)N2C1SC(C)(C)C2C(=O)O` (centres undefined), for which the AC50 was 35500 nM [rising, single point].

With `CCNc1ncc2nc(CCc3ccccc3)c(=O)n(Cc3cccc(OC)c3)c2n1`, the AC50 was 631 nM [rising, partial curve].

Turning to `c1cncc(-c2cc(-n3ccnc3)ncn2)c1`, the AC50 is 1580 nM [rising, full curve].

Consider `O=C(c1csnn1)N1CCC2(CCCN(c3ccc(-c4ccccc4)cc3)C2)CC1`, for which the AC50 is 2510 nM [rising, partial curve].

In the case of `COc1cc2c(C(=O)c3ccccc3)c3c4c(cc(OC)c(OC)c4c2cc1OC)CCN3C`, the AC50 was 891 nM [rising, full curve].

As to `Cn1c(=O)c(-c2ccc(F)c(F)c2)nc2cncnc21`, the AC50 was 1780 nM [rising, full curve].

Turning to `CN(Cc1ccco1)c1ncnc2ccc(-c3cccc(NS(C)(=O)=O)c3)cc12`, the AC50 is 1000 nM [rising, full curve].

Regarding `O=c1c(-c2cc(F)cc(F)c2)nc2cnc(N3CCNCC3)nc2n1Cc1ccc(F)cc1`, the AC50 was 4470 nM [rising, single point].

As for `N[C@H](C(=O)O)[C@H](OCc1ccccc1)C(=O)O`, the AC50 was 35500 nM [rising, partial curve, poor fit].

For `C=CCn1c(=O)c2c(nc(-c3ccc(S(=O)(=O)O)cc3)n2C)n(C)c1=O`, the AC50 is 2.24 nM [falling, full curve, poor fit].

With `CSc1nc(NC2CCCC2)c([N+](=O)[O-])c(NC2CCCC2)n1`, the concentration at half-maximal activity (AC50) is 12600 nM [rising, partial curve].

In the case of `CCNc1ncc2nc(-c3cccs3)c(=O)n(C[C@H]3CCCO3)c2n1`, the AC50 was 3980 nM [rising, single point].

The same assay, now with this note: Drosophila S3 cells, BODIPY lipid droplet/cell ratio, laser cytometry; measured here: lipid channel max response; cells loaded with oleic acid.
As to `COCCn1c(=O)c(-c2cccc(Cl)c2)nc2cncnc21`, the max response amounted to 40.7%.

In the case of `CCNc1ncc2nc(-c3cc(F)cc(F)c3)c(=O)n(CCC#N)c2n1`, the max response is 22.1%.

Consider `Nc1ncnc2c1nc(Sc1ccc(Cl)cc1)n2[C@H]1O[C@@H]2COP(=O)(O)O[C@H]2[C@@H]1O`, for which the max response turned out to be 72.1%.

On to `O=C(c1ccco1)N1CCC2(CC1)CN(c1ncccn1)C2`, for which the max response amounted to 43.2%.

For `c1ccc2sc(N3CCN(Cc4ccc5c(c4)OCO5)CC3)nc2c1`, the max response turned out to be 104%.

With `O=c1c(CCc2ccccc2)nc2cnc(N3CCNCC3)nc2n1Cc1cccs1`, the max response is 38.7%.

As to `COc1ccc(CNc2ccnc(-c3ccccc3Cl)n2)c(OC)c1`, the max response came to 25.6%.

Regarding `O=c1c(-c2ccc(F)cc2)nc2cncnc2n1Cc1ccc(F)cc1`, the max response was 13.1%.

As for `CC(=O)Nc1ccc(-c2nc3ccc(Cl)cc3[nH]2)cc1`, the max response is 128%.

For `CN(C)C(=O)c1ccc(-c2ccc3ncnc(NC4CC4)c3c2)cc1`, the max response stood at 18.1%.

As for `Cn1c(=O)c(-c2ccc(F)cc2)nc2cncnc21`, the max response turned out to be 44.4%.

Regarding `CN(C)c1ncc2nc(-c3ccc(F)cc3)c(=O)n(CCC#N)c2n1`, the max response amounted to 30.8%.

Regarding `N#Cc1ccc(CN2CC3(CCN(C(=O)c4csnn4)CC3)C2)cc1`, the max response is 48.3%.

Turning to `CC(C)=CCc1c2c(c3occ(-c4ccc(O)cc4)c(=O)c3c1O)C=CC(C)(C)O2`, the max response is -80.3%.

With `O=C(O)C1CCCNC1` (centres undefined), the max response was 40.6%.

For `CCOC(=O)C1=C(O)C(=O)N(Cc2ccccc2)C1`, the max response is 19.5%.

Take `c1cncc(-c2nc(N3CCNCC3)c3ccccc3n2)c1`: the max response amounted to 42.1%.

Turning to `O=C(O)c1cc(=O)c2c(Cl)cc(Cl)cc2[nH]1`, the max response was found to be 5.56%.

Take `COc1ccccc1CNc1nc(-c2ccc(N(C)C)cc2)nc2ccccc12`: the max response is -72.6%.

For `CCNc1ncc2nc(-c3cccc(C#N)c3)c(=O)n(CCC#N)c2n1`, the max response is -31.6%.

For the molecule `Cc1cccc(/C=C\c2ccccc2)n1`, the max response turned out to be 115%.

Regarding `CC(=O)NCCc1ccc(O)c(O)c1`, the max response was found to be 5.4%.

Take `CN(C)c1ccc(-c2nc(-n3ccnc3)c3ccccc3n2)cc1`: the max response was 8.35%.

In the case of `O=C(c1ccc2c(c1)OCO2)N1CCCCC1`, the max response was 109%.

In the case of `COc1cccc(-c2nc(NCCN3CCOCC3)c3ccccc3n2)c1`, the max response was 41.7%.

As to `Clc1cccc(Nc2nnc(-c3ccccc3)c3ccccc23)c1`, the max response amounted to 83.3%.

In the case of `O=C(c1csnn1)N1CCC2(CCCN(c3ccccn3)C2)CC1`, the max response amounted to 23.9%.

As to `CN(C)c1ccc(-c2cncnc2N(C)Cc2ccco2)cc1`, the max response is 31.8%.

For the molecule `Cc1onc(-c2c(Cl)cccc2Cl)c1C(=O)NC1C(=O)N2C1SC(C)(C)C2C(=O)O` (centres undefined), the max response was 83.6%.

Turning to `CCNc1ncc2nc(CCc3ccccc3)c(=O)n(Cc3cccc(OC)c3)c2n1`, the max response was found to be 24.5%.

Consider `c1cncc(-c2cc(-n3ccnc3)ncn2)c1`, for which the max response came to 43.8%.

For the molecule `O=C(c1csnn1)N1CCC2(CCCN(c3ccc(-c4ccccc4)cc3)C2)CC1`, the max response was found to be 6.8%.

For `COc1cc2c(C(=O)c3ccccc3)c3c4c(cc(OC)c(OC)c4c2cc1OC)CCN3C`, the max response was -81.6%.

On to `Cn1c(=O)c(-c2ccc(F)c(F)c2)nc2cncnc21`, for which the max response was 40.4%.

In the case of `CN(Cc1ccco1)c1ncnc2ccc(-c3cccc(NS(C)(=O)=O)c3)cc12`, the max response amounted to 1.8%.

As to `O=c1c(-c2cc(F)cc(F)c2)nc2cnc(N3CCNCC3)nc2n1Cc1ccc(F)cc1`, the max response is -99.8%.

For the molecule `N[C@H](C(=O)O)[C@H](OCc1ccccc1)C(=O)O`, the max response came to 91.9%.

Take `C=CCn1c(=O)c2c(nc(-c3ccc(S(=O)(=O)O)cc3)n2C)n(C)c1=O`: the max response is -31.3%.

Consider `CSc1nc(NC2CCCC2)c([N+](=O)[O-])c(NC2CCCC2)n1`, for which the max response was found to be 139%.

Consider `CCNc1ncc2nc(-c3cccs3)c(=O)n(C[C@H]3CCCO3)c2n1`, for which the max response is -9.31%.
